According to publication PMC4336329 (PLoS ONE, 2015):
Among all 310,000 compounds or so, about 2,200 (0.71%) showed an effect of 50% or more. Effects have a minus sign here. This is one part of the list.

What follows are molecules tested against human ether-à-go-go-related gene (hERG) potassium channel (human, UniProt Q12809) (assay: primary screen, population patch clamp on CHO cells stably expressing hERG).
Sequence of human ether-à-go-go-related gene (hERG) potassium channel (Q12809 whole entry, looked up): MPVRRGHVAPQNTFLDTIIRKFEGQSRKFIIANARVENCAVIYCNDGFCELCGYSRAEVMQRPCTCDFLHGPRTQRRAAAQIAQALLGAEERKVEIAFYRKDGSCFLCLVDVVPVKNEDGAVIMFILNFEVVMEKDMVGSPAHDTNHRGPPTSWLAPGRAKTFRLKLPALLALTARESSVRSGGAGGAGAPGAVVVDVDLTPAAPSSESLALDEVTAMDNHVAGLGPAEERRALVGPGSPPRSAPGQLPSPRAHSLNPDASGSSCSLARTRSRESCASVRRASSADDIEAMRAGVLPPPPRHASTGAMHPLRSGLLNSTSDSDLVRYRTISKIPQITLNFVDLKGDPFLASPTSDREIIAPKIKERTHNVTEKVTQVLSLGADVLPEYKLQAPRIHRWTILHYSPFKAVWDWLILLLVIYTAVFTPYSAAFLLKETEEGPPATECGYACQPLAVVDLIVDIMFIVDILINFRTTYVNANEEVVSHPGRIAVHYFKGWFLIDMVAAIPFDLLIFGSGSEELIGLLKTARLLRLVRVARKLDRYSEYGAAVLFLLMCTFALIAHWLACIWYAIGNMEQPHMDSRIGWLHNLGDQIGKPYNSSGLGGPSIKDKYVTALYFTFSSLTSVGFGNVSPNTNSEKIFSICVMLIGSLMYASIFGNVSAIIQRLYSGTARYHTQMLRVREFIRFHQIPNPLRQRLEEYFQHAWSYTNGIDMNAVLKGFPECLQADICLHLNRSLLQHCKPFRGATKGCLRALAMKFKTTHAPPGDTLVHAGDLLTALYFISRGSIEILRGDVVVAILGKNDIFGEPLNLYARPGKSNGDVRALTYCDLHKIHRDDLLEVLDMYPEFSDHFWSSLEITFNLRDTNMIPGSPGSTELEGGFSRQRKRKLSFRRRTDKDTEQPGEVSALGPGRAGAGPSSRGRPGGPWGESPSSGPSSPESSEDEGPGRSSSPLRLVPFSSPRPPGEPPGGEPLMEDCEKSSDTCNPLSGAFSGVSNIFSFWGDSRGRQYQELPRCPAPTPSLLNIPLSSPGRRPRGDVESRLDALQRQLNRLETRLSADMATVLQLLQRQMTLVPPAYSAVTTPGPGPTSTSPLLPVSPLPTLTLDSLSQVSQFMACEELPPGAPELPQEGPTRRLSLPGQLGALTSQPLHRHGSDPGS

Row | SMILES | hERG current change (%, negative = inhibition) at 1uM
1 | COCC(=O)N(Cc1cc2cc(OC)ccc2[nH]c1=O)c1ccc(C)cc1 | 6.88%
2 | O=C(c1ccc(N2CCCCC2)c([N+](=O)[O-])c1)N1CCOCC1 | -3.12%
3 | CSc1nc2ccc(NS(=O)(=O)c3cccc(Cl)c3Cl)cc2s1 | 6.02%
4 | Cc1nn(CCC(=O)NNC(=S)Nc2ccc(F)cc2)c(C)c1[N+](=O)[O-] | -5.03%
5 | CCOc1ccc2nc(SCc3ccccc3C#N)sc2c1 | 12%
6 | O=C(Nc1ccncc1)c1cccc(S(=O)(=O)N2CCCC2)c1 | -3.39%
7 | Cc1ccc(NC(=O)C(=O)NCCCN2CCCC2=O)c(C)c1 | 14.3%
8 | CCOC(=O)C1C(O)=CC(=O)CC1c1ccccc1 (centres unmarked) | 14.3%
9 | N#Cc1cnc(SCC(=O)N2CCCC2)nc1N | 20.6%
10 | CCCC(=O)Nc1c(C)n[nH]c1C | 9.34%
11 | O=C(CCCCCn1c(=O)[nH]c2ccsc2c1=O)N1CCN(C2CCCCC2)CC1 | -5.15%
12 | Cc1c(OCC(=O)N2CCC(C(=O)O)CC2)ccc2c3c(c(=O)oc12)CCCC3 | 5.73%
13 | Cn1c(C(=O)NCCCN2CCCCCC2)cc2c(=O)n(C)c3ccccc3c21 | 0.386%
14 | COC(=O)C1=C(c2cc3ccccc3s2)C[C@@H]2CC[C@H]1N2C(=O)N1CCC(O)CC1 | 8.36%
15 | O=C1c2cccnc2C(Nc2ccc(S(=O)(=O)N3CCCCC3)cc2)N1Cc1ccccc1 (centres unmarked) | 9.88%
16 | COCCN(CCOC)S(=O)(=O)c1ccc(Cl)nc1 | 5.1%
17 | Cl.O=C(O)CCc1nc2cc3ccccc3cc2[nH]1 | 5.42%
18 | Cc1ccc(C(=O)NC2CCS(=O)(=O)C2)cc1S(=O)(=O)N1CCCCC1 (centres unmarked) | 5.69%
19 | CC(=O)Nc1ccccc1NC(=O)c1ccc(C)c(C)c1 | 10.2%
20 | CN(C(=O)c1ccc2c(c1)SC1=NS(=O)(=O)CCN12)C(c1ccccc1)c1ccccc1 | 4.6%
21 | OCC1(CO)COC2(CCCC2)N1 | 5.59%
22 | COCCNC(=O)C(=O)N/N=C/c1ccccc1C(F)(F)F | 10.5%
23 | O=C1c2cccnc2C(=O)N1Cc1ccco1 | 3.2%

Row | SMILES | hERG current change (%, negative = inhibition) at 1uM
24 | COc1ccc(-c2cc([C@H]3[C@H]4C=CC[C@@H](C)[C@@H]4C(=O)N3Cc3ccccc3)ccc2F)cc1 | 18.8%
25 | CSc1ncc(CN2CCCC(C(=O)c3sccc3C)C2)cn1 (centres unmarked) | -19.2%
26 | Cc1cccc(NC(=O)CN2CCN(C(=O)c3c(C)nn(Cc4ccccc4)c3C)CC2)c1C | 0.184%
27 | O=C(c1ccc(N2CCCS2(=O)=O)cc1)N1CCN(c2ccc(F)cc2)CC1 | -5.19%
28 | Cc1ccc(-n2nc(C)c(C3(O)C(=O)N(C)c4ccccc43)c2N)cc1 (centres unmarked) | -15.6%
29 | CCOC(=O)N1CCc2c(sc3c2c(=O)n(Cc2ccccc2)c(=O)n3Cc2ccccc2F)C1 | 2.72%
30 | C/C(=N\NC(=O)c1ccn(C)n1)c1cccc(NC(=O)c2ccncc2)c1 | 2.32%
31 | Cn1c(=O)c2ccccc2n(CC(=O)NCCC2=CCCCC2)c1=O | 12.4%
32 | O=c1[nH]c(=O)n([C@H]2C[C@H](O)[C@@H](CO)O2)cc1F | 17%
33 | COc1ccc(CC(=O)Nc2ccc(C)c(S(=O)(=O)N3CCCCCC3)c2)cc1 | 10.3%
34 | CCCCCCCCCCOC(=O)Cn1c(COc2ccc(Cl)cc2)[n+](C)c2ccccc21.[Cl-] | -79.1%
35 | C=CCn1c(SCC(=O)Nc2nnc(CC)s2)nnc1-c1ccncc1 | 15.7%
36 | COc1ccc(C(C)=O)cc1COc1ncnc2ccccc12 | 9.78%
37 | CCOc1cccc(CN2CCC(n3nccc3NC(=O)C3CC3)CC2)c1O | -42.5%
38 | CC(=O)Nc1ccc(SCC(=O)Nc2ccc(Cl)cn2)cc1 | 17%
39 | Cc1nc2sc(C(N)=O)c(N)c2c(C)c1CC(=O)c1ccccc1 | 7.28%
40 | COc1ccc(C(CNC(=O)c2ccc(NS(=O)(=O)c3ccc(F)cc3)cc2)N2CCOCC2)cc1 (centres unmarked) | 13%
41 | Cc1ccc(OCC(=O)N(C)CC(=O)Nc2ccc(F)c(F)c2F)cc1 | 14.5%
42 | Cc1nc(NC(=O)c2ccccc2)sc1-c1csc(NCc2ccco2)n1 | 2.04%
43 | Nc1cc(-c2ccc(OC(F)(F)F)cc2)nn1-c1ccc(Cl)c(Cl)c1 | 18.7%
44 | O=S(=O)(c1ccc(Br)s1)N1CCC(Cc2ccccc2)CC1 | 12.9%
45 | CCCCN(C)C(=O)CCCc1c[nH]c2ccccc12 | 7.76%
46 | Cc1ccc([N+](=O)[O-])cc1NC(=O)c1ccoc1C | 6.4%

Row | SMILES | hERG current change (%, negative = inhibition) at 1uM
47 | COc1ccc(C(=O)NN=C2CCCC2)c(OC)c1 | 5.94%
48 | Nc1ncnc2c1ncn2C1OC(C(=O)NC2CC2)C(O)C1O (centres unmarked) | 10.2%
49 | Cc1cc(NC(=O)C2CCCCC2C(=O)O)no1 (centres unmarked) | 10.8%
50 | O=C(c1ccccc1)c1ccc(OCC(O)CN2CCOCC2)cc1 (centres unmarked) | 13.4%
51 | O=C(CN1C(=O)NC2(CCCCC2)C1=O)NCc1ccc2c(c1)OCO2 | 9.85%
52 | CCC(=O)N1CCc2cc(S(=O)(=O)NCCC(=O)N3CCc4ccccc4C3)ccc21 | -5.34%
53 | CCOc1ccc2[nH]c(=O)c(CN(Cc3ccco3)Cc3nnnn3Cc3ccccc3)cc2c1 | 8.75%
54 | CCS(=O)(=O)Nc1ccc(C2=NN(C(=O)c3ccco3)C(c3cccs3)C2)cc1 (centres unmarked) | 6.68%
55 | Brc1cccc(CNCC2CCCO2)c1 (centres unmarked) | 16.8%
56 | COc1ccc(CN2CCN(Cc3ccc4ccccc4c3)CC2)cc1OC.O=C(O)C(=O)O | -21.7%
57 | CC(C)(C)NC(=O)c1ccccc1-c1nc(-c2ccccc2Cl)no1 | 5.53%
58 | COc1ccccc1-n1cc2c([N+](=O)[O-])cc([N+](=O)[O-])cc2n1 | 21.6%
59 | NC(=NCCc1c[nH]c2ccccc12)NC(=O)c1ccc(F)cc1 | 6.71%
60 | CCC(c1nnnn1C(C)(C)C)N(Cc1cccs1)Cc1cc2cc(C)c(C)cc2n2nnnc12 (centres unmarked) | 3.93%
61 | O=C(CCCn1nnnc1CN1CCOCC1)N1CCN(c2ccccc2F)CC1 | 10.1%
62 | c1ccc(-c2ccc(CN3CCSCC3)cc2)cc1 | 10.3%
63 | O=C(CSc1nncn1-c1ccccc1)NC1CCCCC1 | 12.3%
64 | C/C(Cn1cnc([N+](=O)[O-])n1)=N/NC(=O)COc1ccccc1Cl | 1.07%
65 | O=C(Nc1cc(Sc2ccccn2)cc([N+](=O)[O-])c1)c1cccc(Cl)c1 | 7.66%
66 | CC(=O)N(\C=C/C=C/C=C1\Sc2ccccc2C1=O)c1ccccc1 | -1.56%
67 | CCCn1c(=O)c(C(=O)Nc2cc(C)ccn2)c(O)c2ccccc21 | 18.5%
68 | Cc1cccc(OCC(=O)N2CCN(C(=O)Cc3ccccc3)CC2)c1 | 5.35%
69 | COc1cc(/C=N/Nc2nc(C)cc(C)n2)cc(OC)c1OC | 13.5%

Row | SMILES | hERG current change (%, negative = inhibition) at 1uM
70 | O=C(Nc1ncc2c(n1)-c1ccccc1CC2)c1ccc(F)cc1 | 7.78%
71 | CCN(CC)C(=O)Cn1cc(S(=O)(=O)CC(=O)N2CCCCCC2)c2ccccc21 | 10.6%
72 | CCn1cnc2cc(NCc3ccc(C)cc3)ccc21 | -16.2%
73 | CC(C)CCN=CC1=C(O)CC(c2ccccc2)CC1=O (centres unmarked) | 13.8%
74 | CCOC(=O)C1CCN(c2c(C(=O)c3ccccc3)cnc3ccc(CC)cc23)CC1 | 13.6%
75 | O=C1Nc2ccccc2/C1=C/c1ccc([N+](=O)[O-])cc1 | -9.62%
76 | COc1cccc(NC(=O)COC(=O)c2ccc(F)cc2F)c1 | 6.24%
77 | Cc1ccc(C(=O)Oc2cc(-c3ccccc3)no2)cc1 | 12.5%
78 | CCN(CC)S(=O)(=O)c1cccc(C(=O)OCC(=O)N2CC(=O)Nc3ccccc32)c1 | 7.65%
79 | COc1ccccc1Nc1nc2ccc(C)cc2cc1C#N | 25.9%
80 | CC(c1cccs1)N(C(=O)Nc1ccccc1)C1CCCCC1 (centres unmarked) | 7.52%
81 | CN(C)C(=O)c1ccc(COc2ccccc2Br)o1 | 11.1%
82 | O=C1CC2(CCN(C(=O)c3ccccc3[N+](=O)[O-])CC2)Oc2ccccc21 | -19%
83 | O=C(CSc1nc2ccccc2[nH]1)c1ccc2c(c1)OCO2 | 6.72%
84 | Cc1nc(N)nc(SCc2ccc([N+](=O)[O-])cc2)c1N | -70.8%
85 | CCCCCCOC(=O)C[N+](C)(C)CCOC1CC2CCC1(C)C2(C)C.[Cl-] (centres unmarked) | -69%
86 | N#Cc1ccc(-c2ccccc2)nc1SCC(=O)c1cccc(Cl)c1 | 19.4%
87 | CC1CN(CCOc2ccc(F)cc2)CC(C)O1.O=C(O)C(=O)O (centres unmarked) | 23.1%
88 | Cc1nc(SCC(=O)Nc2c(C)n(C)n(-c3ccccc3)c2=O)n[nH]1 | 9.7%
89 | CCc1nc(SCC(=O)NNC(=O)c2ccc(OC)cc2)c2ccccc2n1 | 3.74%
